Assay results as given in PubChem BioAssay AID1240 (Sanford-Burnham Center for Chemical Genomics, 2008).
Among all 50,000 compounds or so, about 800 (1.6%) showed an effect of 50% or more. Some of the results follow.

Biological target: Bcl-2-like protein 10 (Homo sapiens) (UniProt Q9HD36)
Test: TR3 peptide-Bcl-B binding displacers, biochemical primary FP assay, phenotype converters (AID 1240);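 further: 0% = Bcl-B with tracer peptide and DMSO and 100% = tracer peptide lacking Bcl-B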
Settings: GST-Bcl-B / FITC-TR3 peptide fluorescence polarization; stronger effect = higher value; compound at 3.75 mg/L

UniProt Q9HD36, sequence (Q9HD36 whole entry, looked up): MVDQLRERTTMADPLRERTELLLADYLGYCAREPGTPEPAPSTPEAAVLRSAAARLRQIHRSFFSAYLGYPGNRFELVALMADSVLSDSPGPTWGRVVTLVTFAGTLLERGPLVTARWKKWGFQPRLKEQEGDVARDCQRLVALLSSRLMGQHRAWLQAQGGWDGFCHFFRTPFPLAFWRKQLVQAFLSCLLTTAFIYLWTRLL

SMILES | displacement [%]
CC1(C)CC(=O)C=C(NCCN2CCN(C(=O)Nc3ccc(Cl)c(Cl)c3)CC2)C1 | -7.6
C=CCc1cccc(/C=N/NC(=O)CSc2nnc(-c3ccccc3)n2-c2ccccc2)c1O | 20.1
Cc1c(C#N)c(=O)ncn1Cc1ccccc1 | -14.8
O=C(O)c1cccc(N/C(=N\S(=O)(=O)c2ccccc2)c2ccccc2)c1 | -2.4
O=C1c2cc(S(=O)(=O)n3cnc4ccccc43)ccc2-c2ccc(S(=O)(=O)n3cnc4ccccc43)cc21 | 13.8
O=C1CCCC2=C1C(c1cccc(Br)c1)C1=C(CCCC1=O)O2 | 9.2
CCOC(=O)c1sc(NC(=O)c2cc(OC)cc(OC)c2)c(C(N)=O)c1C | 10.7
Cc1c(OC(C)C)ccc2c1oc(=O)c1ccccc12 | 17.5
CSc1ccc(S(=O)(=O)N(CC(=O)Nc2ccc(C(C)=O)cc2)c2ccc(C)cc2)cc1 | 13.1
C#CCSc1nc2sc3c(c2c(=O)n1CC=C)CCC3 | -1.3
O=C(CC1OC(=O)c2ccccc21)c1ccccc1 (stereo not given) | 1
CCOc1ccccc1NC(=O)CSCc1ccccc1 | -1.2
COc1ccc(C(=O)NCC(C)C)cc1OC | -63.9
CCC(=O)Nc1nc(C)c(-c2csc(Nc3ccc(C(=O)O)cc3)n2)s1 | 2.7
CCOC(=O)c1c(-c2ccccc2)oc2ccc(OC(=O)c3ccco3)cc12 | 99.8
CCn1c(O)c(N=NC(=O)c2ccccc2[N+](=O)[O-])c2ccccc21 | 4.2
COc1ccc(/C=N\Nc2cc(C)c3ccccc3n2)cc1 | 2.4
N#CC(C#N)=C1C(=O)N(Cc2ccc3c(c2)OCO3)c2ccccc21 | 45.9
O=C(Nc1ccc([N+](=O)[O-])cc1O)C1CC1(c1ccccc1)c1ccccc1 (stereo not given) | -5.1
CCOc1cc2c(c([N+](=O)[O-])c1)NC(c1ccccc1F)C1CC=CC21 (stereo not given) | -10.8
O=C1NN(c2ccc(Cl)c(Cl)c2)C(=O)/C1=C/c1ccccc1O | 28.7
CCCOc1cccc(C(=O)Nc2ccc(I)cc2Cl)c1 | 10.7

SMILES | displacement [%]
Cc1c(-c2cccc(Cl)c2)nc2ccccc2c1C(=O)O | 1
Cc1ccnc(NC(=S)NC(=O)c2ccc(Cl)cc2)c1 | -2.4
Cc1nc2cc(-c3ccccc3)[nH]n2c(=O)c1Cl | 15.7
O=C(/C=C/c1ccc(-c2cccc(Cl)c2)o1)c1cccs1 | -65
Cc1ccc(C(O)(C(=O)Nc2ccccn2)c2ccc(C)cc2)cc1 | -0.3
CCN(CC)c1ccc(-n2c(O)c(C3=c4ccccc4=NC3=O)sc2=S)cc1 | 3.3
COc1ccc(N2C(=O)C3C4C=CC(C4=C(C)C)C3C2=O)cc1 (stereo not given) | 120
O=[N+]([O-])c1ccc(Cl)cc1NCCOc1ccc(F)cc1 | 9.1
COc1ccc(CCN2C(=O)CSC2c2ccc(F)cc2)cc1OC (stereo not given) | -13.2
CCCCc1cccc(C(=O)CSc2nc(C)c(C)c(C)c2C#N)c1 | 0.6
C=CCn1c(O)c(N=NC(=O)c2ccc3ccccc3n2)c2ccccc21 | -1.6
O=[N+]([O-])c1ccc2nc(Sc3ccccn3)sc2c1 | -5.6
COc1ccc(CCNC(=O)c2ccc(C)c([N+](=O)[O-])c2)cc1 | -10.8
Nc1cc(Cl)c(S(=O)(=O)NC2CCCCC2)cc1S(=O)(=O)NC1CCCCC1 | -2.5
O=C(Nc1nc2ccc([N+](=O)[O-])cc2s1)c1cc(Cl)ccc1Cl | 2.2
CCOC(=O)C1=C(O)/C(=C/c2ccc(C)cc2)SC1=Nc1cccc(Cl)c1 | -4.5
CCCC(=O)Nc1ccc(NC(=O)c2ccc(Cl)c(Cl)c2)cc1 | 11.4
CCOC(=O)c1c(Nc2ccccc2)sc(C=NCc2ccc(Cl)cc2)c1O | -9
CC(=O)c1ccc(N/C(=N/S(=O)(=O)c2ccc(Cl)cc2)c2ccccc2)cc1 | 16.1
O=C(N/N=C/c1ccc(I)o1)c1ccncc1 | 7.8
CCC(=O)Nc1nc2ccccc2n1CCN(C)C | -6
CCCC(=O)Nc1cc(OC)ccc1OC | 7.5

SMILES | displacement [%]
O=C(c1sc2ccccc2c1Cl)N1CCN(c2ccc(Cl)cc2[N+](=O)[O-])CC1 | 7.3
CCOC(=O)/C(=C/C=C/N(C1CCCCC1)C1CCCCC1)C(C)=O | 0.6
O=C(NCCN1CCOCC1)C(c1ccccc1)c1ccccc1 | 8.1
CCOc1ccc(NC(=O)c2ccc3ccccc3n2)cc1 | 0.5
N#CCOc1ccccc1/C=C/c1[nH]c(=O)[nH]c(=O)c1[N+](=O)[O-] | 6
COc1ccc(C(=O)CSc2nc3cc(OC)ccc3n2Cc2ccccc2)cc1 | -24
CCOC(=O)C1=NNC2C(=O)N(c3ccc(C)c(C)c3)C(=O)C12 (stereo not given) | 4.5
C#CCSc1nc2ccccc2n1C(=O)c1ccc(S(=O)(=O)N2CCCCC2)cc1 | -7.5
CC(=O)Nc1ccc(NC(=O)Cn2cnc3c2c(=O)n(C)c(=O)n3C)cc1 | 12.7
N/C(=N\OC(=O)Cc1ccc(Cl)cc1)c1ccncc1 | -6
Cn1c(=O)[nH]c2nc(-c3ccccc3)[nH]c2c1=O | 2.6
COc1ccc(N2C(=O)/C(=C3/C(=O)N(Cc4ccccc4F)c4ccccc43)SC2=S)cc1 | -0.4
COc1ccccc1Cc1noc(-c2ccc(Br)cc2)n1 | -4.5
CC(C)CC(=O)N1CCN(Cc2cccn2C)CC1 | 15
CC(O)CNC(=O)C(=O)NCc1ccc2c(c1)OCO2 (stereo not given) | 8.5
C=CCS(=O)(=O)Nc1cccc2ccccc12 | 6.3
CC(C)(O)C1=NOC(c2ccccc2)C1 (stereo not given) | -13.4
CN1C(=O)/C(=C\c2ccc(OC(=O)c3cccc(Br)c3)cc2)SC1=S | 15.4
O=C(CNc1cccc2ccccc12)N/N=C/c1cn(Cc2ccccc2)c2ccccc12 | 1.1
O=C1CS/C(=N/N=C/c2ccc3c(c2)OCO3)N1 | -8.7
Cc1ccc(CN2C(=O)CSC2c2cn(-c3ccccc3)nc2-c2ccccc2)cc1 (stereo not given) | 10.5
CCOC(=O)C1CCN(C2=NC(=O)/C(=C/c3ccc(N(C)C)cc3)S2)CC1 | -19.9

SMILES | displacement [%]
Cc1cc(Cn2ccnc2)c(C)c([N+](=O)[O-])c1Cn1ccnc1 | 0
CC(=O)Oc1cccc(Oc2ccc([N+](=O)[O-])cc2)c1 | 4.5
COc1cc(-c2nc3nnc(C)n3[nH]2)cc(OC)c1OC | 16.6
COc1ccccc1NS(=O)(=O)c1cc([N+](=O)[O-])ccc1Cl | 10
CC(C)(C#CCN1CCOCC1)OCCC#N | -15.5
Cc1ccc(O)c(C=Nc2cccc3nsnc23)c1 | -10.4
N/C(=N\c1nc2ccccc2o1)NC(=O)/C=C/c1ccco1 | -28.3
Cc1ccc(C23CC4CC(CC(C(=O)Nc5ccc(C(=O)O)cc5)(C4)C2)C3)cc1 | 4.9
COc1ccc([N+](=O)[O-])cc1/C=C1\SC(=S)N(C2CCCCC2)C1=O | -1
COc1cc(NC(=O)Cc2ccc(OC)c(OC)c2)cc(OC)c1 | -5.3
c1ccc(CN2CCC(N3CCN(C4CCCCC4)CC3)CC2)cc1 | 1.5
CCc1c(C)sc(NC(=O)c2ccncc2)c1C(=O)OC | 3.8
COC(=O)C1=C(C)NC(C)=C(C(=O)OC)C1c1ccc(Cl)cc1 | 4.5
O=c1[nH]cc(N=Cc2ccccc2)c(=O)[nH]1 | -2.8
CC1(C)C(C=C(Cl)Cl)C1C(=O)Nc1cccc2ccccc12 (stereo not given) | 12.4
Cc1ccnc(SC2CC(=O)N(c3ccccc3)C2=O)n1 (stereo not given) | 12.3
CC(C)(C)c1ccc(C(=O)O/N=C(\N)c2cccc([N+](=O)[O-])c2)cc1 | -9
CCC(=O)Oc1ccc2c(C)c(CC)c(=O)oc2c1 | -9.3
CN(c1ccc(C(N)=O)cc1)S(=O)(=O)c1ccccc1 | -1.3
Cc1nc2sc3c(c2c(=O)[nH]1)CCCC3 | 16.9
COc1ccc(S(=O)(=O)NNC(=O)c2ccc(F)cc2)cc1 | -10.9
CCN(CC)C(=O)c1sc(NC(=O)c2ccc([N+](=O)[O-])cc2)c(C(=O)OC(C)C)c1C | -3.3

SMILES | displacement [%]
COc1ccc(/C=C2\N=C(c3ccccc3I)OC2=O)cc1 | -2.3
CONC(=O)c1ccc(C(=O)c2c(C)cc(C)cc2C)cc1 | -0.5
CCc1ccc(/C=N\N2CCN(c3ccc(C)cc3)CC2)cc1 | -1
Cc1ccc(C2C(C(=O)/C=C/c3ccccc3)=C(O)C(=O)N2CCCCCC(=O)O)cc1 (stereo not given) | 0.7
C/C(=N/O)c1ccc(NC2=C(N3CCCC3)C(=O)c3ccccc3C2=O)cc1 | 12.1
COc1ccccc1Cc1noc(-c2ccc(I)cc2)n1 | 4.3
O=c1cc(N2CCOCC2)c2ccccc2s1 | -5.1
CCC(CC)C(=O)Nc1nc2ccc(Cl)cc2s1 | -3.2
COC(=O)C1=C(C)NC2=C(C(=O)CC(c3ccccc3)C2)C1c1cccc([N+](=O)[O-])c1 (stereo not given) | 7.3
COc1ccc(CN2CCN(C(=O)c3ccccc3F)CC2)cc1OCc1ccccc1 | 0.4
Cc1cc(C(c2ccc(F)cc2)c2cc(C)c(NC(=O)c3ccccc3)c(C)c2)cc(C)c1NC(=O)c1ccccc1 | 12.4
Cc1cc(C)c(C(=O)/C=C/c2ccc(Br)cc2)c(=O)[nH]1 | 6.5
N#Cc1c(NC(=O)COc2ccc(Cl)cc2)oc(-c2ccccc2)c1-c1ccccc1 | -17.5
CCOc1ccccc1NC(=O)c1ccc(I)cc1 | 10.7
Fc1ccc(Nc2nc(-c3ccncc3)nc3ccccc23)cc1F | 47.8
O=C(Nc1ccccc1)c1ccccc1C(=O)N1CCCCC1 | 13.1
O=S(=O)(NN=Cc1cn(-c2ccccc2)nc1-c1ccco1)c1ccccc1 | -6.7
CCOc1ccc2cc(S(=O)(=O)NCC3CCCO3)ccc2c1 (stereo not given) | -6
Cc1ccc(NC(=O)CCCOc2ccc(Cl)cc2Cl)c(Br)c1 | 11.6
Cc1ccc(NS(=O)(=O)c2ccc3c(c2)C(=NO)c2cc(S(=O)(=O)Nc4ccc(C)cc4)ccc2-3)cc1 | 8.6
O=C(NC12CC3CC(CC(C3)C1)C2)c1ccc(S(=O)(=O)N2CCOCC2)cc1 | -5.3
O=C(O)CCN1C(=O)S/C(=C\c2ccccc2)C1=O | 6.4
